From the supplement of paper PMC8512760 come the findings set out here.

Molecules are shown by their SMILES. The list shows a part of the results. Single values are uncertain, as repeats are few or missing.
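Note: stably firefly luciferase-GFP labeled cells in 96-well plates, viability read as luciferase photon flux after d-luciferin addition, treated wells normalized to vehicle wells, single-dose high-throughput screen.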

The subject of the assay is SUM-149. Nature of the assay: cell viability relative to vehicle (% of vehicle); basal-like triple-negative breast cancer lines; higher = less cytotoxic. The following applies: 10 µM; 72 h.
The molecule `CC(C)C1C(=O)NC(CCCN=C(N)N)C(=O)NCC(=O)NC(CC(=O)O)C(=O)NC(Cc2ccccc2)C(=O)N1C` (configuration not stated) [Cilengitide] displayed a cell viability of 118. Consider `CC(O)C(=O)O.CC(O)C(=O)O.CN1CCN(c2ccc3c(c2)NC(=C2C(=O)N=c4cccc(F)c4=C2N)N3)CC1` [Dovitinib Dilactic acid], for which the cell viability is 37.8. With `CC1(C)O[C@@H]2C[C@H]3[C@@H]4CCC5=CC(=O)C=C[C@]5(C)[C@H]4[C@@H](O)C[C@]3(C)[C@]2(C(=O)CO)O1` [Desonide], the cell viability stood at 176. The molecule `CN(C)CC=CC(=O)Nc1cc2c(Nc3ccc(F)c(Cl)c3)ncnc2cc1OC1CCOC1.O=C(O)C=CC(=O)O.O=C(O)C=CC(=O)O` (configuration not stated) [Afatinib dimaleate] showed a cell viability of 44.8. The molecule `NC(CO)(CO)CO` [Trometamol] registered a cell viability of 109.

For `CC1=C2N=C(C=C3N=C(C(C)=C4[N-]C(C)(C5N=C1C(C)(CCC(=O)NCC(C)OP(=O)([O-])OC1C(CO)OC(n6cnc7cc(C)c(C)cc76)C1O)C5CC(N)=O)C(C)(CC(N)=O)C4CCC(N)=O)C(C)(CC(N)=O)C3CCC(N)=O)C(C)(C)C2CCC(N)=O.[CH3-].[Co+3]` (configuration not stated) [Methylcobalamin], the cell viability was determined as 124. As to `O=C1NC([O-])=NC1(c1ccccc1)c1ccccc1.[Na+]` [Phenytoin sodium], the cell viability stood at 105.
